Assay results as given in PubChem BioAssay AID2546 (National Center for Advancing Translational Sciences (NCATS), 2010).
Among all 310,000 compounds or so, about 11,000 (3.5%) were called active. The shares of active, inactive and inconclusive entries below differ from those in the screen. Calls come from the whole dose curve; as a rule, active = well fitted inhibition curve with a large enough effect; inconclusive = small, poorly fitted or top-dose-only effect, or effect the other way; inactive = flat fitted curve, though single readings scatter. Potencies of inconclusive entries are left out as doubtful fits.
Potency is the fitted concentration of half-maximal effect; tags give direction and shape of the fitted curve.

Assay: VP16 counterscreen qHTS for inhibitors of ROR gamma transcriptional activity;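 note: Gal4-VP16 expression switched on by copper sulfate through the metallothionein promoter; nearly all actives have a fitted effect of over 50% in size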
Settings: Drosophila S2 Gal4-VP16 UAS-luciferase, luminescence, 20 h; series mostly up to 53.6 µM
For `O=C1CN=C(Nc2ccccc2)N1Cc1cccs1`, the Potency was inconclusive [inhibitor, single point].
In the case of `Cc1cc(NCCN2CCOCC2)n2nc(C)c(-c3ccccc3)c2n1`, the Potency is reported as active: 10 µM.
With `CCOc1ccc2c(c1)c(N=O)c(O)n2C` the Potency was “inactive”.
For `S=c1nc2ccccc2c2nc(-c3ccccc3)[nH]n12`, the Potency was active: 0.355 µM.
With `OCCOCCNc1ncnc2sc(-c3ccccc3)cc12` the Potency was inconclusive [inhibitor, single point].
For `Cc1nc2ccccn2c1C(=O)/C=C/c1ccc(F)cc1`, the Potency was inconclusive [inhibitor, single point].
With `CC(C)CC(=O)NC(=S)N1CCN(c2ccc([N+](=O)[O-])cc2Cl)CC1` the Potency was inconclusive [activator, single point].
In the case of `CN(CC(=O)Nc1nc2ccc(F)cc2s1)S(=O)(=O)c1ccc(Cl)cc1`, the Potency is reported as inconclusive [inhibitor, single point].
With `COc1ccc(CNC(=O)CSc2nnnn2C)cc1OC` the Potency was “inactive”.
In the case of `C[C@@H]1CCC(=O)N(CC[C@H](Oc2ccccc2)c2ccccc2)CC1`, the Potency is reported as “inactive”.
In the case of `C/C(=N\NC(=S)NC1CCCCC1)c1ccc(C#N)cc1`, the Potency is reported as active: 2 µM.
In the case of `O=C1CN(CC(=O)NC2CCCc3ccccc32)CCN1` (centres undefined), the Potency is reported as “inactive”.
For `Cc1cc(C)c(C(=O)Cn2cnc3cc([N+](=O)[O-])ccc3c2=O)cc1C`, the Potency was inconclusive [activator, single point].
In the case of `Cc1csc(NC(=O)c2ccc(Cl)nc2)n1`, the Potency is reported as inconclusive [activator, single point].
For `O=C1/C(=C/c2cccnc2)SC(=S)N1C1CCS(=O)(=O)C1` (centres undefined), the Potency was inconclusive [inhibitor, single point].
For `O=C1C(Cl)=C(NCCN2CCCCC2)C(=O)c2ccccc21`, the Potency was inconclusive [inhibitor, single point].
For `CCOc1cc(NC(=S)NC)c(OCC)cc1NC(=O)c1cccs1`, the Potency was inconclusive [inhibitor, single point].
In the case of `Cc1ccc2oc(=O)c(/C=C(\O)c3cccs3)nc2c1`, the Potency is reported as inconclusive [inhibitor, single point].
With `CCn1c(/C=N/c2nc3ccccc3n2C)nc2ccccc21` the Potency was inconclusive [inhibitor, single point].
For `CC1(c2ccccc2)O[C@@H]2C[C@H]3[C@@H]4CCC5=CC(=O)C=C[C@]5(C)[C@@]4(F)[C@@H](O)C[C@]3(C)[C@]2(C(=O)CO)O1` (some centres undefined), the Potency was “inactive”.
In the case of `Cc1noc(C)c1C(=O)N1CCN(c2ccc(OCc3ccccc3)cc2)CC1`, the Potency is reported as “inactive”.
For `COc1ccc(-n2nc3c(N4CCC(C(=O)NCc5cccc(C)c5)CC4)nnc(C)c3c2C)cc1`, the Potency was active: 20 µM.
In the case of `COC(=O)CC1SC(=O)NC1=Nc1cccc(C)c1` (centres undefined), the Potency is reported as inconclusive [inhibitor, single point].
In the case of `Brc1ccc(-c2cn3ccccc3n2)s1`, the Potency is reported as inconclusive [inhibitor, full curve].
With `CC1=CC(=O)C=C(C)C1=NOC(=O)/C=C\c1ccccc1` the Potency was inconclusive [inhibitor, single point].
With `Cc1ccc(NC(=O)c2sc3nc(N)c(C#N)cc3c2N)cc1` the Potency was inconclusive [inhibitor, single point].
With `Cc1ccc(OCCCc2c(C)n[nH]c2C)cc1` the Potency was inconclusive [inhibitor, single point].
In the case of `Cc1nnc(N/N=C\c2ccc(-c3cccc(C(=O)O)c3)o2)n1N`, the Potency is reported as inconclusive [inhibitor, single point].
For `COC(=O)c1sc(-c2ccc(C(C)(C)C)cc2)cc1NC(=O)CCC(=O)O`, the Potency was inconclusive [inhibitor, single point].
With `O=C(COc1ccc(C(=O)c2ccccc2)cc1)NC1CCCCCC1` the Potency was inconclusive [inhibitor, single point].
For `Cc1cc(-c2nnc(SCC(=O)Nc3nccs3)o2)no1`, the Potency was inconclusive [inhibitor, single point].
For `CCN(CC)S(=O)(=O)c1ccc(N2CCOCC2)c(NC(=O)COc2ccccc2C#N)c1`, the Potency was “inactive”.
In the case of `C/C(=N\NC(=O)c1nnn(-c2nonc2N)c1-c1cccs1)c1ccc(O)cc1`, the Potency is reported as “inactive”.
For `CCCCC(=O)Nc1cnc(NC(=O)c2ccco2)cc1C`, the Potency was inconclusive [inhibitor, single point].
For `Cc1ccc2nc(C3CCCN3Cc3nc(CCC(C)C)no3)[nH]c2c1` (centres undefined), the Potency was active: 20 µM.
For `COc1cc(OC)c(NC(=S)NCc2ccc(F)cc2)cc1Cl`, the Potency was “inactive”.
With `COc1ccc(OC)c(-c2c3c([nH]c(=S)c2C#N)CCCC3)c1` the Potency was inconclusive [inhibitor, single point].
For `CCOc1ccc(N=Nc2ccc(O)c3ncccc23)cc1`, the Potency was active: 0.398 µM.
For `COCCCNC(=O)c1cc2c(=O)n(C)c3ccccc3c2n1C`, the Potency was “inactive”.
